# Reference: a collection of fitness landscapes (doi:10.1126/science.1257360)
# Some of the results follow.
# B1: PhoQ; a variant is named by its letters at X, in order, P23837 (parent)
# chain: MKKLLRLFFPLSLRVRFLLATAAVVLVLSLAYGMVALIGYSVSFDKTTFRLLRGESNLFYTLAKWENNKLHVELPENIDKQSPTMTLIYDENGQLLWAQRDVPWLMKMIQPDWLKSNGFHEIEADVNDTSLLLSGDHSIQQQLQEVREDDDDAEMTHSVAVNVYPATSRMPKLTIVVVDTIPVELKSSYMVWSWFIYVLSANLLLVIPLLWVAAWWSLRPIEALAKEVRELEEHNRELLNPATTRELTSLVRNLNRLLKSERERYDKYRTTLTDLTHSLKTPLXXLQXXLRSLRSEKMSVSDAEPVMLEQISRISQQIGYYLHRASMRGGTLLSRELHPVAPLLDNLTSALNKVYQRKGVNISLDISPEISFVGEQNDFVEVMGNVLDNACKYCLEFVEISARQTDEHLYIVVEDDGPGIPLSKREVIFDRGQRVDTLRPGQGVGLAVAREITEQYEGKIVAGESMLGGARMEVIFGRQHSAPKDE
# Variants of: B1
# Assay: enrichment ratio after two sorts for PhoP signalling (ratio (wild type AVST 3.29)); higher = more functional
# Details: with PhoP (E. coli)
row,Variant,enrichment ratio
1,DNHR,≤ 0.25
2,RTTH,≤ 0.25
3,WFRP,≤ 0.25
4,VNHQ,≤ 0.25
5,EQYV,≤ 0.25
6,RVWK,≤ 0.25
7,DWIV,≤ 0.25
8,YGPM,≤ 0.25
9,DAHA,≤ 0.25
10,LQSL,≤ 0.25
11,YLCP,≤ 0.25
12,YLEP,≤ 0.25
13,PYIE,≤ 0.25
14,INIQ,≤ 0.25
15,QNMN,≤ 0.25
16,WHLF,≤ 0.25
17,LIDI,≤ 0.25
18,LPSD,≤ 0.25
19,FHLR,≤ 0.25
20,KKTM,≤ 0.25
21,IEVW,≤ 0.25
22,NRNK,≤ 0.25
23,RPPM,≤ 0.25
24,ASEN,≤ 0.25

row,Variant,enrichment ratio
1,LYSI,≤ 0.25
2,SQMH,2.58
3,ADMV,35.3
4,NFVY,≤ 0.25
5,FYEK,≤ 0.25
6,YIKM,≤ 0.25
7,QKGC,≤ 0.25
8,FYYL,≤ 0.25
9,FSQK,2.06
10,LHKN,≤ 0.25
11,KTRC,≤ 0.25
12,PESK,≤ 0.25
13,LKMN,≤ 0.25
14,EDQR,≤ 0.25
15,QEMG,≤ 0.25
16,KPSM,≤ 0.25
17,WEWF,≤ 0.25
18,SPVV,≤ 0.25
19,WCTG,≤ 0.25
20,GIIH,9.22
21,KFGT,≤ 0.25
22,CHTM,≤ 0.25
23,ESWH,≤ 0.25
24,NCIP,≤ 0.25

row,Variant,enrichment ratio
1,SPWY,≤ 0.25
2,PAHK,≤ 0.25
3,IGHK,≤ 0.25
4,WRYF,≤ 0.25
5,AWNC,≤ 0.25
6,EVSE,≤ 0.25
7,PEED,≤ 0.25
8,KFMG,≤ 0.25
9,TTNW,≤ 0.25
10,TGTN,8.63
11,SKLP,≤ 0.25
12,NDRY,≤ 0.25
13,NWMN,≤ 0.25
14,IYMQ,≤ 0.25
15,GPFR,≤ 0.25
16,QDQF,≤ 0.25
17,ENRN,≤ 0.25
18,ENSA,≤ 0.25
19,QTID,≤ 0.25
20,QSYC,2.55
21,DDWC,≤ 0.25
22,RKRC,≤ 0.25
23,FIWV,≤ 0.25
24,TDQK,≤ 0.25

row,Variant,enrichment ratio
1,YAFY,≤ 0.25
2,RSTP,≤ 0.25
3,YLEF,≤ 0.25
4,YCTH,≤ 0.25
5,GFFL,≤ 0.25
6,NKEV,≤ 0.25
7,WAKI,≤ 0.25
8,PPHY,≤ 0.25
9,CITN,≤ 0.25
10,YYAE,≤ 0.25
11,SFPK,≤ 0.25
12,RCKC,≤ 0.25
13,RDTW,≤ 0.25
14,QIVP,≤ 0.25
15,VEPC,≤ 0.25
16,GITY,0.69
17,MDKL,≤ 0.25
18,NDWL,≤ 0.25
19,AEFR,≤ 0.25
20,YQNK,≤ 0.25
21,RNHA,≤ 0.25
22,FPPV,≤ 0.25
23,RYRM,≤ 0.25
24,VPWY,≤ 0.25

row,Variant,enrichment ratio
1,APRS,≤ 0.25
2,KMSN,≤ 0.25
3,AMKR,≤ 0.25
4,CHFY,≤ 0.25
5,VGQC,≤ 0.25
6,YRVL,≤ 0.25
7,YGCD,≤ 0.25
8,KVQC,≤ 0.25
9,KTYW,≤ 0.25
10,GLCS,4.59
11,THHP,≤ 0.25
12,ISDD,≤ 0.25
13,VHYA,≤ 0.25
14,WVYR,≤ 0.25
15,HRGY,≤ 0.25
16,VQRH,≤ 0.25
17,LAIH,≤ 0.25
18,SYDC,≤ 0.25
19,LQIG,≤ 0.25
20,HMCA,≤ 0.25
21,QLYC,≤ 0.25
22,QAAC,≤ 0.25
23,DAMH,≤ 0.25
24,YAFS,≤ 0.25

row,Variant,enrichment ratio
1,ESHC,≤ 0.25
2,RHMG,≤ 0.25
3,DGLS,≤ 0.25
4,VDEV,≤ 0.25
5,YLCM,0.441
6,HFHN,≤ 0.25
7,NFHE,≤ 0.25
8,VSWA,≤ 0.25
9,QVGH,15.9
10,LHDV,≤ 0.25
11,DNCP,≤ 0.25
12,YTLC,11.3
13,KPKN,≤ 0.25
14,DTMY,≤ 0.25
15,FETY,≤ 0.25
16,TNAG,5.74
17,QHGV,≤ 0.25
18,NRPI,≤ 0.25
19,LWLR,≤ 0.25
20,MEWF,≤ 0.25
21,EYHM,≤ 0.25
22,FADL,≤ 0.25
23,SSFV,1.16
24,VRFH,≤ 0.25

row,Variant,enrichment ratio
1,YQGM,≤ 0.25
2,KKSH,≤ 0.25
3,WFAR,≤ 0.25
4,SAYF,≤ 0.25
5,RQRC,≤ 0.25
6,SPFG,≤ 0.25
7,MCAL,13.5
8,FLCW,≤ 0.25
9,IDFG,≤ 0.25
10,NVVP,≤ 0.25
11,VPLW,≤ 0.25
12,VQDM,≤ 0.25
13,FYEI,≤ 0.25
14,GTCW,≤ 0.25
15,VLPQ,≤ 0.25
16,SPNN,≤ 0.25
17,DVSP,≤ 0.25
18,GLPY,≤ 0.25
19,RHHK,≤ 0.25
20,PSIE,≤ 0.25
21,GFMH,≤ 0.25
22,MCHN,≤ 0.25
23,KGID,≤ 0.25
24,YEPA,≤ 0.25

row,Variant,enrichment ratio
1,RCLQ,≤ 0.25
2,HNDH,≤ 0.25
3,IVLM,5.53
4,QSEH,≤ 0.25
5,MPST,≤ 0.25
6,PYQW,≤ 0.25
7,FRRM,≤ 0.25
8,PRMQ,≤ 0.25
9,NLLN,≤ 0.25
10,KPMY,≤ 0.25
11,VKHI,≤ 0.25
12,AAMA,≤ 0.25
13,RCAP,≤ 0.25
14,TPIV,≤ 0.25
15,KMTC,≤ 0.25
16,WAEW,≤ 0.25
17,YDYC,≤ 0.25
18,TYGI,≤ 0.25
19,STKM,≤ 0.25
20,PVTT,≤ 0.25
21,YIIN,≤ 0.25
22,TNTH,1.01
23,RYDL,≤ 0.25
24,EQMT,≤ 0.25

row,Variant,enrichment ratio
1,ETWP,≤ 0.25
2,MCMH,≤ 0.25
3,KSCI,≤ 0.25
4,ENVI,≤ 0.25
5,TSTQ,16
6,QCKS,≤ 0.25
7,AFWD,≤ 0.25
8,WHPC,≤ 0.25
9,QEPN,≤ 0.25
10,YKAS,≤ 0.25
11,TQSH,3.13
12,LWCW,≤ 0.25
13,HTMQ,≤ 0.25
14,QQSC,1.63
15,PFLG,≤ 0.25
16,MEHS,≤ 0.25
17,AIDC,≤ 0.25
18,ARAI,≤ 0.25
19,TLNY,≤ 0.25
20,YVNT,≤ 0.25
21,IGYG,≤ 0.25
22,RANC,≤ 0.25
23,FLAI,≤ 0.25
24,PKSD,≤ 0.25

row,Variant,enrichment ratio
1,LLNV,≤ 0.25
2,KFNN,≤ 0.25
3,LWAG,≤ 0.25
4,ETHF,≤ 0.25
5,LQVW,≤ 0.25
6,DIQR,≤ 0.25
7,MCVN,≤ 0.25
8,RANH,≤ 0.25
9,WPDH,≤ 0.25
10,RHCA,≤ 0.25
11,TPTH,≤ 0.25
12,THHY,≤ 0.25
13,SYVN,≤ 0.25
14,KQNP,≤ 0.25
15,SIIN,0.251
16,MRMF,1.22
17,EKGY,≤ 0.25
18,PRQQ,≤ 0.25
19,HYSV,≤ 0.25
20,PEWT,≤ 0.25
21,QEAV,≤ 0.25
22,KVDT,≤ 0.25
23,TNDM,2.26
24,TRQY,≤ 0.25

row,Variant,enrichment ratio
1,IALK,≤ 0.25
2,ARTP,≤ 0.25
3,YSND,≤ 0.25
4,FREI,≤ 0.25
5,FWHM,≤ 0.25
6,YSCE,≤ 0.25
7,PYQV,≤ 0.25
8,EIAM,≤ 0.25
9,DAMT,≤ 0.25
10,HHAL,≤ 0.25
11,RPLD,≤ 0.25
12,DRLW,≤ 0.25
13,EWHC,≤ 0.25
14,NPNQ,≤ 0.25
15,RADR,≤ 0.25
16,EEHE,≤ 0.25
17,MGWL,9.14
18,WWFT,≤ 0.25
19,TYMY,≤ 0.25
20,REVD,≤ 0.25
21,LTCT,≤ 0.25
22,LTSC,≤ 0.25
23,AYMW,≤ 0.25
24,PLDT,≤ 0.25

row,Variant,enrichment ratio
1,GGKH,≤ 0.25
2,ERVL,≤ 0.25
3,WPMN,≤ 0.25
4,PEIY,≤ 0.25
5,NIKW,≤ 0.25
6,YTQC,≤ 0.25
7,RNIK,≤ 0.25
8,GVHP,≤ 0.25
9,DVDT,≤ 0.25
10,YSAM,≤ 0.25
11,YWMR,≤ 0.25
12,MRKG,≤ 0.25
13,NQMD,≤ 0.25
14,TRVG,≤ 0.25
15,HKSH,≤ 0.25
16,NMWW,≤ 0.25
17,VIRA,≤ 0.25
18,VYNW,≤ 0.25
19,ESVF,≤ 0.25
20,LRGL,≤ 0.25
21,PHAF,≤ 0.25
22,ARHL,≤ 0.25
23,QWLP,≤ 0.25
24,DDDI,≤ 0.25

row,Variant,enrichment ratio
1,DNGS,≤ 0.25
2,KRVQ,≤ 0.25
3,EFEI,≤ 0.25
4,LQLL,≤ 0.25
5,EALH,≤ 0.25
6,PHMN,≤ 0.25
7,YTSP,≤ 0.25
8,SGDV,≤ 0.25
9,KVQP,≤ 0.25
10,SCYM,0.298
11,CSRS,≤ 0.25
12,WLLF,≤ 0.25
13,FSFQ,≤ 0.25
14,FAEP,≤ 0.25
15,HDEV,≤ 0.25
16,TTVS,2.04
17,LPTN,≤ 0.25
18,ELDC,≤ 0.25
